The list shows a part of the results.
B1: Q9UKT9 (peptide)
chain: FACEICGAKFTQKGNLLRHIKL
B2: Q9UKT9 (peptide)
chain: FFCEICGRNFTQKGNLLRHIKL
B3: Q9UKT9 (peptide)
chain: FFCPICGHFFTQKGNLLRHIKL
B4: Q9UKT9 (peptide)
chain: FDCEICGRLFTQKGNLLRHIKL
B5: Q9UKT9 (peptide)
chain: FGCEVCGADFTQKGNLLRHIKL
B6: Q9UKT9 (peptide)
chain: FSCNQCGAPFTQKGNLLRHIKL
B7: Q9UKT9 (peptide)
chain: FLCDVCGAGFTQKGNLLRHIKL
B8: Q9UKT9 (peptide)
chain: FGCEQCGARFTQKGNLLRHIKL
B9: Q9UKT9 (peptide)
chain: FICPVCGAKFTQKGNLLRHIKL
B10: Q9UKT9 (peptide)
chain: FHCEICGHLFTQKGNLLRHIKL
B11: Q9UKT9 (peptide)
chain: FHCNQCGREFTQKGNLLRHIKL
B12: Q9UKT9 (peptide)
chain: FDCDQCGAIFTQKGNLLRHIKL
B13: Q9UKT9 (peptide)
chain: LGCEICGFTCTQKGNLLRHIKL
B14: Q9UKT9 (peptide)
chain: FICEICGRMFTQKGNLLRHIKL
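Further: jurkat cells carrying a lentiviral library of mutant zinc finger degrons fused to EGFP plus mCherry, mCherry+ cells FACS sorted, degron abundance counted by next-generation sequencing.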

These sequences were tested against no compound (DMSO) (assay: log2 fold change of degron read counts, EGFP-low vs EGFP+ sorted cells; higher = lower degron-EGFP level without compound (poor expression or instability)). Conditions: compound: DMSO control; 18 h.
For B1, the “log2 fold change of degron read counts” value was -2.26.
In the case of B2, the “log2 fold change of degron read counts” value is reported as -1.52.
B3 was tested, and the “log2 fold change of degron read counts” value was 1.17.
B4 was tested, and the “log2 fold change of degron read counts” value was 0.0112.
With B5 the “log2 fold change of degron read counts” value was -1.85.
B6 was tested, and the “log2 fold change of degron read counts” value was 0.0681.
For B7, the “log2 fold change of degron read counts” value was -2.55.
With B8 the “log2 fold change of degron read counts” value was -2.19.
With B9 the “log2 fold change of degron read counts” value was -1.06.
In the case of B10, the “log2 fold change of degron read counts” value is reported as -0.4.
For B11, the “log2 fold change of degron read counts” value was -0.464.
B12 was tested, and the “log2 fold change of degron read counts” value was -0.658.
In the case of B13, the “log2 fold change of degron read counts” value is reported as 0.281.
With B14 the “log2 fold change of degron read counts” value was -0.689.

Reference: the supplement of paper PMC12645437, “Orthogonal IMiD-Degron Pairs Induce Selective Protein Degradation in Cells” (ACS Chemical Biology, 2025)
